The source of these data is patent publication US20170107179A1 (Tetraphase Pharmaceuticals, Inc., priority 2010, published 2017).

The subject of one assay is Klebsiella pneumoniae KP109 (ATCC 13883). The assay can be described thus: Minimum Inhibitory Concentration (MIC) assay, CLSI broth dilution. The arrangement: key: A = lower than or equal to lowest MIC among three control compounds; B = greater than lowest MIC among three control compounds, but lower than highest MIC among three control compounds; C = greater than MIC of all three control compounds. Conditions: class vs MICs of sancycline, minocycline, tigecycline. The method, then:
(§1) Briefly, frozen bacterial strains were thawed and subcultured onto Mueller Hinton Broth (MHB) or other appropriate media (Streptococcus requires blood and Haemophilus requires hemin and NAD). Following incubation overnight, the strains were subcultured onto Mueller Hinton Agar and again incubated overnight. […] Isolated colonies were selected to prepare a starting inoculum equivalent to a 0.5 McFarland standard. The starting inoculum was diluted 1:125 (this is the working inoculum) using MHB for further use. […] .
(§2) The assays were run as follows. Fifty μL of MHB was added to wells 2-12 of a 96-well plate. One hundred μL of appropriately diluted antibiotics was added to well 1. Fifty μL of antibiotics was removed from well 1 and added to well 2 and the contents of well 2 mixed by pipetting up and down five times. Fifty μL of the mixture in well 2 was removed and added to well 3 and mixed as above. Serial dilutions were continued in the same manner through well 12. Fifty μL was removed from well 12 so that all contained 50 μL. Fifty μL of the working inoculum was then added to all test wells. A growth control well was prepared by adding 50 μL of working inoculum and 50 μL of MHB to an empty well. The plates were then incubated at 37° C. overnight, removed from the incubator and each well was read on a plate reading mirror. The lowest concentration (MIC) of test compound that inhibited the growth of the bacteria was recorded.
(§3) The following bacterial strains, listed below, were examined in minimum inhibitory concentration (MIC) assays.
A general note: In broth dilution the organism is exposed to a series of concentrations in liquid medium.
As to `CN(C)[C@@H]1C(O)=C(C(N)=O)C(=O)[C@@]2(O)C(O)=C3C(=O)c4c(O)c5c(c(F)c4C[C@H]3C[C@@H]12)CN(C1CCCC1)C5` [Compound 100], the “MIC KP109 13883” value is listed as “B”.

In the case of `CN(C)[C@@H]1C(O)=C(C(N)=O)C(=O)[C@@]2(O)C(O)=C3C(=O)c4c(O)c5c(c(F)c4C[C@H]3C[C@@H]12)CN(CC(C)(C)C)C5` [Compound 101], the “MIC KP109 13883” value is reported as “B”.

`CN(C)[C@@H]1C(O)=C(C(N)=O)C(=O)[C@@]2(O)C(O)=C3C(=O)c4c(O)c5c(c(F)c4C[C@H]3C[C@@H]12)CN(C(C)(C)C)C5` [Compound 102]: the “MIC KP109 13883” value was “B”.

Regarding `CN(C)[C@@H]1C(O)=C(C(N)=O)C(=O)[C@@]2(O)C(O)=C3C(=O)c4c(O)c5c(c(F)c4C[C@H]3C[C@@H]12)CN(C[C@@H]1CCCO1)C5` [Compound 104], the “MIC KP109 13883” value is “B”.

As to `CN(C)[C@@H]1C(O)=C(C(N)=O)C(=O)[C@@]2(O)C(O)=C3C(=O)c4c(O)c5c(c(F)c4C[C@H]3C[C@@H]12)CNC5` [Compound 105], the “MIC KP109 13883” value is “B”.

Take `CC(C)[C@@H](C)N1Cc2c(O)c3c(c(F)c2C1)C[C@H]1C[C@H]2[C@H](N(C)C)C(O)=C(C(N)=O)C(=O)[C@@]2(O)C(O)=C1C3=O` [Compound 106]: the “MIC KP109 13883” value was “B”.

As for `CN(C)[C@@H]1C(O)=C(C(N)=O)C(=O)[C@@]2(O)C(O)=C3C(=O)c4c(O)c5c(c(F)c4C[C@H]3C[C@@H]12)CN(CCF)C5` [Compound 107], the “MIC KP109 13883” value was “B”.

In the case of `CN(C)[C@@H]1C(O)=C(C(N)=O)C(=O)[C@@]2(O)C(O)=C3C(=O)c4c(O)c5c(c(F)c4C[C@H]3C[C@@H]12)CN(C[C@H]1CCCO1)C5` [Compound 108], the “MIC KP109 13883” value is “B”.

Regarding `CCC(C)(C)N1Cc2cc3c(c(O)c2C1)C(=O)C1=C(O)[C@]2(O)C(=O)C(C(N)=O)=C(O)[C@@H](N(C)C)[C@@H]2C[C@@H]1C3` [Compound 109], the “MIC KP109 13883” value is on record as “B”.

With `CC[C@H](C)N1Cc2c(O)c3c(c(Cl)c2C1)C[C@H]1C[C@H]2[C@H](N(C)C)C(O)=C(C(N)=O)C(=O)[C@@]2(O)C(O)=C1C3=O` [Compound 110], the “MIC KP109 13883” value was “B”.

For the molecule `CN(C)[C@@H]1C(O)=C(C(N)=O)C(=O)[C@@]2(O)C(O)=C3C(=O)c4c(O)c5c(c(F)c4C[C@H]3C[C@@H]12)CN(C(=O)CNC1CCCC1)C5` [Compound 111], the “MIC KP109 13883” value is given as “B”.

`CC[C@@H](C)N1Cc2c(O)c3c(c(Cl)c2C1)C[C@H]1C[C@H]2[C@H](N(C)C)C(O)=C(C(N)=O)C(=O)[C@@]2(O)C(O)=C1C3=O` [Compound 117]: the “MIC KP109 13883” value is “B”.

As for `CN(C)[C@@H]1C(O)=C(C(N)=O)C(=O)[C@@]2(O)C(O)=C3C(=O)c4c(O)c5c(c(F)c4C[C@H]3C[C@@H]12)CN(C(C)(C)C1CC1)C5` [Compound 118], the “MIC KP109 13883” value was “B”.

Turning to `CCC(C)N1Cc2c(O)c3c(c(F)c2C1)C[C@H]1C[C@H]2[C@H](N(C)C)C(O)=C(C(N)=O)C(=O)[C@@]2(O)C(O)=C1C3=O` (some centres unmarked) [Compound 120], the “MIC KP109 13883” value is recorded as “B”.

On to `CC(C)CN1Cc2c(O)c3c(c(F)c2C1)C[C@H]1C[C@H]2[C@H](N(C)C)C(O)=C(C(N)=O)C(=O)[C@@]2(O)C(O)=C1C3=O` [Compound 121], for which the “MIC KP109 13883” value was “B”.

`CC[C@H](C)N1Cc2c(O)c3c(c(F)c2C1)C[C@H]1C[C@H]2[C@H](N(C)C)C(O)=C(C(N)=O)C(=O)[C@@]2(O)C(O)=C1C3=O` [Compound 123]: the “MIC KP109 13883” value is “B”.

A further assay has as its system Pseudomonas aeruginosa PA111 (ATCC 27853). The description is as above. The arrangement: key: A = lower than or equal to lowest MIC among three control compounds; B = greater than lowest MIC among three control compounds, but lower than highest MIC among three control compounds; C = greater than MIC of all three control compounds. Conditions: class vs MICs of sancycline, minocycline, tigecycline. The method, then:
as §1, §2, §3
As to `CN(C)[C@@H]1C(O)=C(C(N)=O)C(=O)[C@@]2(O)C(O)=C3C(=O)c4c(O)c5c(c(F)c4C[C@H]3C[C@@H]12)CN(C1CCCC1)C5` [Compound 100], the “MIC PA111 27853” value is “B”.

Regarding `CN(C)[C@@H]1C(O)=C(C(N)=O)C(=O)[C@@]2(O)C(O)=C3C(=O)c4c(O)c5c(c(F)c4C[C@H]3C[C@@H]12)CN(CC(C)(C)C)C5` [Compound 101], the “MIC PA111 27853” value was “B”.

As for `CN(C)[C@@H]1C(O)=C(C(N)=O)C(=O)[C@@]2(O)C(O)=C3C(=O)c4c(O)c5c(c(F)c4C[C@H]3C[C@@H]12)CN(C(C)(C)C)C5` [Compound 102], the “MIC PA111 27853” value is reported as “B”.

In the case of `CN(C)[C@@H]1C(O)=C(C(N)=O)C(=O)[C@@]2(O)C(O)=C3C(=O)c4c(O)c5c(c(F)c4C[C@H]3C[C@@H]12)CN(C[C@@H]1CCCO1)C5` [Compound 104], the “MIC PA111 27853” value is “B”.

As to `CN(C)[C@@H]1C(O)=C(C(N)=O)C(=O)[C@@]2(O)C(O)=C3C(=O)c4c(O)c5c(c(F)c4C[C@H]3C[C@@H]12)CNC5` [Compound 105], the “MIC PA111 27853” value is on record as “B”.

With `CC(C)[C@@H](C)N1Cc2c(O)c3c(c(F)c2C1)C[C@H]1C[C@H]2[C@H](N(C)C)C(O)=C(C(N)=O)C(=O)[C@@]2(O)C(O)=C1C3=O` [Compound 106], the “MIC PA111 27853” value was “B”.

Turning to `CN(C)[C@@H]1C(O)=C(C(N)=O)C(=O)[C@@]2(O)C(O)=C3C(=O)c4c(O)c5c(c(F)c4C[C@H]3C[C@@H]12)CN(CCF)C5` [Compound 107], the “MIC PA111 27853” value was “B”.

Consider `CN(C)[C@@H]1C(O)=C(C(N)=O)C(=O)[C@@]2(O)C(O)=C3C(=O)c4c(O)c5c(c(F)c4C[C@H]3C[C@@H]12)CN(C[C@H]1CCCO1)C5` [Compound 108], for which the “MIC PA111 27853” value is recorded as “B”.

Turning to `CCC(C)(C)N1Cc2cc3c(c(O)c2C1)C(=O)C1=C(O)[C@]2(O)C(=O)C(C(N)=O)=C(O)[C@@H](N(C)C)[C@@H]2C[C@@H]1C3` [Compound 109], the “MIC PA111 27853” value is “B”.

Turning to `CC[C@H](C)N1Cc2c(O)c3c(c(Cl)c2C1)C[C@H]1C[C@H]2[C@H](N(C)C)C(O)=C(C(N)=O)C(=O)[C@@]2(O)C(O)=C1C3=O` [Compound 110], the “MIC PA111 27853” value is given as “B”.

As for `CN(C)[C@@H]1C(O)=C(C(N)=O)C(=O)[C@@]2(O)C(O)=C3C(=O)c4c(O)c5c(c(F)c4C[C@H]3C[C@@H]12)CN(C(=O)CNC1CCCC1)C5` [Compound 111], the “MIC PA111 27853” value is recorded as “B”.

In the case of `CC[C@@H](C)N1Cc2c(O)c3c(c(Cl)c2C1)C[C@H]1C[C@H]2[C@H](N(C)C)C(O)=C(C(N)=O)C(=O)[C@@]2(O)C(O)=C1C3=O` [Compound 117], the “MIC PA111 27853” value was “B”.

Take `CN(C)[C@@H]1C(O)=C(C(N)=O)C(=O)[C@@]2(O)C(O)=C3C(=O)c4c(O)c5c(c(F)c4C[C@H]3C[C@@H]12)CN(C(C)(C)C1CC1)C5` [Compound 118]: the “MIC PA111 27853” value is “B”.

As to `CCC(C)N1Cc2c(O)c3c(c(F)c2C1)C[C@H]1C[C@H]2[C@H](N(C)C)C(O)=C(C(N)=O)C(=O)[C@@]2(O)C(O)=C1C3=O` (some centres unmarked) [Compound 120], the “MIC PA111 27853” value is “B”.

`CC(C)CN1Cc2c(O)c3c(c(F)c2C1)C[C@H]1C[C@H]2[C@H](N(C)C)C(O)=C(C(N)=O)C(=O)[C@@]2(O)C(O)=C1C3=O` [Compound 121]: the “MIC PA111 27853” value is “B”.

`CC[C@H](C)N1Cc2c(O)c3c(c(F)c2C1)C[C@H]1C[C@H]2[C@H](N(C)C)C(O)=C(C(N)=O)C(=O)[C@@]2(O)C(O)=C1C3=O` [Compound 123]: the “MIC PA111 27853” value is “B”.
